Measurements published in paper PMC12040169 (PLOS Biology, 2025).
The other results are listed elsewhere or left out.

These molecules were tested on T1, C. trachomatis L2/434/Bu expressing GFP (CTL2-GFP). Conditions: total inclusion area; 28.5 h, 10 µM; inhibitor.
T1 construct: L2/434/Bu GFP intracellular growth in HeLa cells
Design: species or system HeLa; C. trachomatis total inclusion area by high-content imaging, normalised to DMSO
Outline: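 High-content imaging followed the bulk GFP/resorufin measurement: fixed, Hoechst-stained cells were scored for GFP inclusions and host nuclei per well. Total inclusion area and count served as growth proxies, nuclei number as the viability proxy. MIC calculation matched the bulk assay.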

Going from `CC(=O)c1ccc(NC(=O)CSc2nnc(-c3ccncc3)s2)cc1` [CBK269183] to `COc1ccc(CSc2nnc(-c3ccncc3)n2C)cc1[N+](=O)[O-]` [CBK269638], the “% of control remaining” value falls from 100.308 to 72.8415.

First: COc1ccccc1NC(=O)C(=O)NCc1cccnc1 [CBK287724]
Second: COc1ccccc1CC(=O)NNC(=O)c1ccco1 [CBK262956]
The “% of control remaining” value of the first is lower: 87.0432 for the first, 115.285 for the second.

Going from `CN(Cc1cnn(C)c1)C(=O)COCc1nc2cc(F)ccc2[nH]1` [CBK306687] to `CN(C)CCN(C)C(=O)c1ccc(-c2cccc(OC(F)(F)F)c2)nc1N(C)C` [CBK106081], the “% of control remaining” value rises from 95.4443 to 115.497.

Going from `COc1ccc(Oc2cncc(OC3CCN(CCCn4c(=O)[nH]c5ccccc54)C3)n2)cc1OC` (stereo not shown) [CBK084406] to `COc1ccc(Cc2nc(-c3ccccc3)c3ccccc3n2)cc1F` [CBK291176], the “% of control remaining” value falls from 96.5667 to 90.8546.

Compared with `Cc1ccc(-c2nc3ncccc3o2)cc1NC(=S)NC(=O)c1ccc(-c2cccc([N+](=O)[O-])c2)o1` [CBK268294], `O=C(Nc1cccnc1N1CCNCC1)c1ccc(-c2cccc(C(F)(F)F)c2)o1` [CBK034119T] is higher in “% of control remaining” value: 85.3595 for the first, 105.322 for the second.

First: COc1ccc(COC(=O)C2CC(=O)N(Cc3ccc(C)cc3)C2)cc1 (stereo not shown) [CBK296624]
Second: COc1ccc(-c2c(-c3ccc(F)cc3)[nH]c3[nH]c(=O)[nH]c(=O)c23)cc1 [CBK288232]
The “% of control remaining” value of the first is higher: 71.254 for the first, 68.6613 for the second.

First: CCC(=O)c1cc(F)c(N2CCN(C(=O)c3cccs3)CC2)cc1C [CBK033892]
Second: CC(C)(C)c1cc(C(=O)N2CCN(c3ncccn3)CC2)n(Cc2ccc(Cl)cc2Cl)n1 [CBK107294]
The “% of control remaining” value of the first is lower: 58.7784 for the first, 99.1397 for the second.

First: O=C(NCc1ccc2c(c1)OCO2)c1cnc(-c2ccc(Cl)cc2)c(-c2ccco2)c1 [CBK037547]
Second: O=C(c1ccc(F)cc1)C1CCN(C(=O)c2cccnc2NCc2ccc3c(c2)OCO3)CC1 [CBK160114]
The “% of control remaining” value of the first is lower: 38.3636 for the first, 76.871 for the second.

First: CCN(CC)C(=O)C1CCCN(C(=O)NCCc2c[nH]cn2)C1 (stereo not shown) [CBK156124]
Second: Cc1nc(C2CCCN(C(=O)CCc3ccno3)C2)c2sccn12 (stereo not shown) [CBK285237]
The “% of control remaining” value of the first is lower: 93.132 for the first, 104.174 for the second.

First: O=S(=O)(CCOc1ccccc1)N(CCOc1ccccc1)C1CCCCC1 [CBK022003]
Second: CCNC(=O)[C@H]1CN(Cc2ccccc2)C[C@@H]1C(=O)c1ccccc1 [CBK285265]
The “% of control remaining” value of the first is lower: 33.1902 for the first, 85.38 for the second.

Compared with `Cn1c(=O)n(CC(=O)NC23CC4CC(CC(C4)C2)C3)c2cccnc21` [CBK283795], `O=C(Cn1cccnc1=O)NC(c1ccc2c(c1)CCO2)C1CC(O)C1` (stereo not shown) [CBK306595] is lower in “% of control remaining” value: 84.2647 for the first, 82.956 for the second.

First: CC(=O)Nc1ccc(S(=O)(=O)NC2(C(F)(F)F)NC(=O)N(C3CCCC3)C2=O)cc1 (stereo not shown) [CBK268100]
Second: CC(=O)N1CC[C@H]2NC(=O)CNC(=O)C3(CCCC[C@H]2C1)CCN(C(=O)c1ccc(C)nc1)CC3 [CBK292172]
The “% of control remaining” value of the first is lower: 70.1395 for the first, 114.882 for the second.

First: Cc1cc(C)c(NC(=O)CSCC(=O)Nc2ccc3ccccc3c2)c(C)c1 [CBK264856]
Second: COc1ccccc1NC(=O)C1=C(C)NC(SCC(=O)Nc2ccc(C(=O)O)cc2)=C(C#N)C1c1cccs1 (stereo not shown) [CBK296139]
The “% of control remaining” value of the first is higher: 99.9368 for the first, 74.2167 for the second.

Compared with `Cc1nc(NCCCn2ccnc2)c2ccccc2n1` [CBK051987], `Cc1ccc(-c2nccnc2OCCn2cccc2)cc1C` [CBK106864] is lower in “% of control remaining” value: 109.467 for the first, 87.2079 for the second.

Going from `CCOC(=O)c1cc(C(N)=S)c(C)nc1C(F)(F)F` [CBK028734] to `CC(C)c1nsc(NS(=O)(=O)c2cc(OCC(F)(F)F)ccc2OCC(F)(F)F)n1` [CBK051262], the “% of control remaining” value falls from 61.2746 to 28.0268.

First: Nc1nnc(CSCc2ccc(Cl)cc2Cl)s1 [CBK263471]
Second: c1csc(CSc2nnc3sc4ccccc4n23)c1 [CBK266291]
The “% of control remaining” value of the first is lower: 92.7838 for the first, 103.843 for the second.

Going from `Cc1ccn2c(C(=O)N(C)CCc3noc(C(C)C)n3)nnc2n1` [CBK306670] to `Cc1ccc2cc(CN(CC(C)C)S(C)(=O)=O)c(O)nc2c1` [CBK269593], the “% of control remaining” value rises from 63.2386 to 69.6525.

Going from `O=C(Nc1ccc(N2CCOCC2)cc1)c1ccc(-n2cnnc2)cc1Cl` [CBK269889] to `O=C(Nc1ccc(Cl)cc1C(=O)O)c1ccccc1Cl` [CBK000171], the “% of control remaining” value rises from 74.1941 to 106.484.

First: CC(=O)N1c2ccc(-c3cn4ccc(C)cc4n3)cc2CC1C (stereo not shown) [CBK285191]
Second: CC1CN(c2cc(CNc3nc4ccccn4c3C#N)ccn2)CCO1 (stereo not shown) [CBK306423]
The “% of control remaining” value of the first is higher: 90.9566 for the first, 46.1137 for the second.

First: Cc1nc(-c2ccccc2)sc1CNC(=O)/C=C/c1c[nH]cn1 [CBK092368]
Second: O=C(O)c1sccc1NS(=O)(=O)Cc1ccccc1 [CBK004561]
The “% of control remaining” value of the first is higher: 117.343 for the first, 114.447 for the second.

Going from `Cc1ccccc1Cc1cccc(C2CCN(C(=O)c3ccc(F)cc3)CC2)n1` [CBK286140] to `OC(CN1CCC(O)(c2ccccc2F)CC1)c1ccc(F)cc1` (stereo not shown) [CBK282492], the “% of control remaining” value rises from 95.0447 to 111.641.

First: CCn1c(C(CC(C)C)NC(=O)c2ccco2)nc2cccnc21 (stereo not shown) [CBK283523]
Second: CCn1cnc2cc(NC(=O)CC(C)n3nc(C)cc3C)ccc21 (stereo not shown) [CBK281401]
The “% of control remaining” value of the first is lower: 98.7186 for the first, 106.027 for the second.

Compared with `O=C(CNC(=O)c1ccccc1Cl)Nc1ccc(Br)cc1C(=O)c1ccccc1` [CBK087691], `O=C1C2CCCN2S(=O)(=O)c2ccccc2N1Cc1ccccc1` (stereo not shown) [CBK284018] is higher in “% of control remaining” value: 0 for the first, 92.3701 for the second.

Going from `CCN(CC)CCN(Cc1ccc2c(c1)OCO2)C(=O)Nc1cccc(NC(C)=O)c1` [CBK159042] to `CC(=O)Nc1cccc(CN(CCCO)C2CCc3ccccc32)c1` (stereo not shown) [CBK304011], the “% of control remaining” value rises from 81.6856 to 93.4808.

First: CC1CN(C2(n3nnc4ccccc43)CCC(C(C)(C)C)CC2)CC(C)O1 (stereo not shown) [CBK019373]
Second: CN1CCC(C(=O)N2CCCc3ccccc32)CC1 [CBK200260]
The “% of control remaining” value of the first is higher: 90.7098 for the first, 80.4764 for the second.

Going from `CCSc1cc(Nc2nc(Cl)cc(SCC)n2)nc(N)n1` [CBK005164] to `COc1ccc(Nc2nc(Cl)nc(NCCN3CCOCC3)n2)cc1` [CBK027610], the “% of control remaining” value falls from 91.7798 to 56.6816.

First: FC(F)(F)c1ccnc(OCc2ccc(-c3ccccc3)cc2)c1 [CBK115826]
Second: N#Cc1cccc(-c2cnc(N)c(-c3ccc(O)cc3)n2)c1 [CBK115630]
The “% of control remaining” value of the first is lower: 93.8204 for the first, 95.1394 for the second.

First: Nc1cc(N)nc(SCC(=O)Nc2nonc2N)n1 [CBK267522]
Second: CCCNC(=O)Cn1nc(CC)n2c(cc3sccc32)c1=O [CBK284030]
The “% of control remaining” value of the first is higher: 90.6565 for the first, 86.3315 for the second.

First: O=C(c1cc2c(s1)CCC2)N1CCc2c(nc[nH]c2=O)C1 [CBK283703]
Second: Cn1c(SCC(=O)N2CCN(Cc3ccccc3)CC2)nnc1-c1cccc([N+](=O)[O-])c1 [CBK267154]
The “% of control remaining” value of the first is lower: 69.8137 for the first, 118.25 for the second.

First: COC1C(O)C(CO)OC1n1ccc(NC(=O)c2ccccc2)nc1=O (stereo not shown) [CBK201212]
Second: N#Cc1ccc(C(=O)Nc2nnc(-c3ccccn3)o2)cc1 [CBK287428]
The “% of control remaining” value of the first is lower: 82.5187 for the first, 129.373 for the second.

Going from `COc1ccccc1NS(=O)(=O)c1cc(S(=O)(=O)Nc2ccccc2OC)c(C)cc1C` [CBK261493] to `CN(C)C(CNS(=O)(=O)c1ccc2[nH]c(=O)[nH]c(=O)c2c1)c1ccccc1Cl` (stereo not shown) [CBK286385], the “% of control remaining” value rises from 112.03 to 123.448.

Compared with `Cc1ccc(CN(CCCN(C)C)Cc2nc(C)n3ccccc23)o1` [CBK282482], `CN(C)Cc1cc(C[C@@H]2C[C@H](NS(=O)(=O)c3ccccc3)C2(C)C)no1` [CBK289307] is higher in “% of control remaining” value: 75.9663 for the first, 111.495 for the second.

Going from `O=C(NCCCN1CCN(Cc2ccccc2)CC1)c1cn2cc(C(F)(F)F)cc(Cl)c2n1` [CBK074654] to `CN(Cc1nccs1)C(=O)NC1CCN(Cc2cccc(O)c2)CC1` [CBK307657], the “% of control remaining” value falls from 86.6274 to 64.9943.

First: CC(C)Nc1cncc(OCCN2CCNCC2)n1 [CBK115601]
Second: CC(C)C1OC(NCCN2CCOCC2)=NC1=O (stereo not shown) [CBK074097T]
The “% of control remaining” value of the first is higher: 100.072 for the first, 85.4882 for the second.

Compared with `CCN1C(=O)C(F)(CC)C(=O)c2ccccc21` (stereo not shown) [CBK098854], `CCn1c(C)cc2cc(NS(=O)(=O)c3cn(C)nc3C)ccc21` [CBK282789] is lower in “% of control remaining” value: 123.775 for the first, 77.6469 for the second.

Compared with `CCc1nc(CC(=O)NC(C)C(O)c2ccc(F)cc2)cs1` (stereo not shown) [CBK304003], `Cn1ncc(N2CCC(CNC(=O)COc3ccc(Cl)cc3)C2)cc1=O` (stereo not shown) [CBK306517] is higher in “% of control remaining” value: 87.1998 for the first, 108.816 for the second.

Going from `COc1cc(C#N)ccc1Oc1ccc([N+](=O)[O-])cn1` [CBK002569] to `Cc1cccc(OCCOc2ccc(Br)cc2/C=C2\SC(=N)NC2=O)c1` [CBK263958], the “% of control remaining” value falls from 100.481 to 96.7712.

Compared with `O=C(COc1cccc2ccccc12)N/N=C/c1ccco1` [CBK086853], `c1ccc([C@@H]2CN(CC3CCOC3)C[C@H]2c2cc[nH]n2)cc1` (stereo partly shown) [CBK285163] is lower in “% of control remaining” value: 86.9758 for the first, 79.8049 for the second.

First: CCn1cc(C2CN(S(=O)(=O)c3cc(C)c(OC)cc3C)CCO2)cn1 (stereo not shown) [CBK304225]
Second: CCCn1c(=O)c(C(=O)NCCN(CC)CC)c(O)c2cc(Br)ccc21 [CBK291118]
The “% of control remaining” value of the first is lower: 49.7901 for the first, 80.4149 for the second.

For `N=C1OC2CSCC2N1C(=O)Cc1ccccc1Cl` (stereo not shown) [CBK284516], the “% of control remaining” value was 95.9318.
